Test results as given in article PMC8857484.
Results are given in words; binding and its absence hold for the method and conditions named. Binding seen in cells or lysates may run through a third protein. Some binding calls cover weakened binding; strength is not graded here. For some assays here: Tags and fused reporters may be left off the sequences shown.

By UniProt entry, the sequences of proteins in these tests, tags left out. Where a name states a change or a piece, a line headed by the entry shows the natural chain unless it says otherwise. Residues count along the entry.
UniProt Q13586: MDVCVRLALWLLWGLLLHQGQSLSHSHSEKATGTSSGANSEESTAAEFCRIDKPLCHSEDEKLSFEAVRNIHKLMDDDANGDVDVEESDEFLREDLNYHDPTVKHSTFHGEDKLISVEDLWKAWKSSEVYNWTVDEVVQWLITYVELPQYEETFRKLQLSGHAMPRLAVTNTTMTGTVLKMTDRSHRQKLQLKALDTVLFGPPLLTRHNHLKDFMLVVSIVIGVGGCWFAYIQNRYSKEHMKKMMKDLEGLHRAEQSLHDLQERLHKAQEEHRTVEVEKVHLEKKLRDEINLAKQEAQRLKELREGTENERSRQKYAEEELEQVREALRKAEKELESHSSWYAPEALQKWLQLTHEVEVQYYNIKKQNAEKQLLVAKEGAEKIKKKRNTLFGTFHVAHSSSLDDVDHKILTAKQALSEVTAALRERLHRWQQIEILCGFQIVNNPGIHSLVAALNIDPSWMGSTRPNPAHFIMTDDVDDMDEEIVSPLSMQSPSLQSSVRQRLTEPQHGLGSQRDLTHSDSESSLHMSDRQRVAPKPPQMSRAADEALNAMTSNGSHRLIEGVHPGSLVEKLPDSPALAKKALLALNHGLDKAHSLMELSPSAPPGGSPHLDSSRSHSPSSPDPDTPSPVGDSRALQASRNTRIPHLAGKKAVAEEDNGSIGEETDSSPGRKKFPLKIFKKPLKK
UniProt P70302, residues 23-685: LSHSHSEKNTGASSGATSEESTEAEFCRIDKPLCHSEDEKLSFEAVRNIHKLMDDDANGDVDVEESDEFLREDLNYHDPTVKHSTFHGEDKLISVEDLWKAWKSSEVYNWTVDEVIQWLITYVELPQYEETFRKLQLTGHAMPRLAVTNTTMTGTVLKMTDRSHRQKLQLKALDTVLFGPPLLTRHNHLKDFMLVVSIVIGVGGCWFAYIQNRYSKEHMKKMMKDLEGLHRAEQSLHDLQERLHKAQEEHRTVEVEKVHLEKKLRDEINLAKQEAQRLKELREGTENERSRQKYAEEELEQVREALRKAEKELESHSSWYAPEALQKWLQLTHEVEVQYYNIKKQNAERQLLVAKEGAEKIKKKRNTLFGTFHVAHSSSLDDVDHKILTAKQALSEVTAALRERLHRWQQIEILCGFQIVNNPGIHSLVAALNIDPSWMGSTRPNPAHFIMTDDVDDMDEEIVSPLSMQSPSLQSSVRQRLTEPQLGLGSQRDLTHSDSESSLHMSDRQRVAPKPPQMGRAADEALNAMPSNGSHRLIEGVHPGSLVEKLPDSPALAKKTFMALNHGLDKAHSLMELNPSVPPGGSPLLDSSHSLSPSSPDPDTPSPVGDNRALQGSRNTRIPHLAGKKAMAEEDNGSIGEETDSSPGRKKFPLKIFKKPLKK

Experiments:
[1] = molecular target: T1, uncoordinated 93 homolog B1 (UNC93B1), endogenous in HEK-293T cells (human (endogenous in HEK-293T)) (UniProt Q9H1C4); assay: co-IP; lysates of mouse dendritic cells and of HEK-293T STIM1^flip-in cells (0.5% NP-40, 50 mM Tris pH 7.4, 150 mM NaCl, 5 mM EDTA); immunoprecipitated with anti-UNC93B1 overnight at 4 °C, protein A/G agarose; blot probed with anti-STIM1
T1 sequence: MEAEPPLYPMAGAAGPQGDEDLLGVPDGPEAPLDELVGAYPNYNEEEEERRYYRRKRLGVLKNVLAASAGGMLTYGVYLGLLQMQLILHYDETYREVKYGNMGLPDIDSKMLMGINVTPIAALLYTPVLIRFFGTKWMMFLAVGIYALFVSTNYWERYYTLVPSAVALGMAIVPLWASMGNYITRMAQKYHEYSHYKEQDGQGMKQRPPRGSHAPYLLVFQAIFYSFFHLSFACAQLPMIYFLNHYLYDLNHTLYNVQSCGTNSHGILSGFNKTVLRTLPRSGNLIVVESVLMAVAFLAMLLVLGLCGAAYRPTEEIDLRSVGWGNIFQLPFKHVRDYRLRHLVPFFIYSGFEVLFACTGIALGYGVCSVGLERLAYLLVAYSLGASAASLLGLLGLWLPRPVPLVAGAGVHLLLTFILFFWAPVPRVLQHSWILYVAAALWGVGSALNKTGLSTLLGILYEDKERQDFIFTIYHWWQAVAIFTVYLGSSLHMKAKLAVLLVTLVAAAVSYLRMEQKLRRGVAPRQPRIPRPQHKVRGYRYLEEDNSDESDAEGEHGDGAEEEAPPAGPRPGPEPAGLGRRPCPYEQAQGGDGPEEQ

UNC93B1-FLAG-MYC = molecular target: T2, UNC93B1-FLAG-MYC (UniProt Q9H1C4); assay: co-IP; WT HEK-293T cells transfected with UNC93B1-FLAG and a STIM1 construct; lysis in 0.5% NP-40, 50 mM Tris pH 7.4, 150 mM NaCl, 5 mM EDTA; immunoprecipitated with anti-FLAG; blot probed with anti-STIM1 (N-term) and anti-FLAG
T2 sequence: T1 sequence

[2] = molecular target: T3, uncoordinated 93 homolog B1 (UNC93B1), endogenous in the mouse dendritic cell line 2114 (mouse (endogenous in the dendritic cell line 2114)) (UniProt Q8VCW4); assay: co-IP; lysates of mouse dendritic cells and of HEK-293T STIM1^flip-in cells (0.5% NP-40, 50 mM Tris pH 7.4, 150 mM NaCl, 5 mM EDTA); immunoprecipitated with anti-UNC93B1 overnight at 4 °C, protein A/G agarose; blot probed with anti-STIM1
T3 sequence: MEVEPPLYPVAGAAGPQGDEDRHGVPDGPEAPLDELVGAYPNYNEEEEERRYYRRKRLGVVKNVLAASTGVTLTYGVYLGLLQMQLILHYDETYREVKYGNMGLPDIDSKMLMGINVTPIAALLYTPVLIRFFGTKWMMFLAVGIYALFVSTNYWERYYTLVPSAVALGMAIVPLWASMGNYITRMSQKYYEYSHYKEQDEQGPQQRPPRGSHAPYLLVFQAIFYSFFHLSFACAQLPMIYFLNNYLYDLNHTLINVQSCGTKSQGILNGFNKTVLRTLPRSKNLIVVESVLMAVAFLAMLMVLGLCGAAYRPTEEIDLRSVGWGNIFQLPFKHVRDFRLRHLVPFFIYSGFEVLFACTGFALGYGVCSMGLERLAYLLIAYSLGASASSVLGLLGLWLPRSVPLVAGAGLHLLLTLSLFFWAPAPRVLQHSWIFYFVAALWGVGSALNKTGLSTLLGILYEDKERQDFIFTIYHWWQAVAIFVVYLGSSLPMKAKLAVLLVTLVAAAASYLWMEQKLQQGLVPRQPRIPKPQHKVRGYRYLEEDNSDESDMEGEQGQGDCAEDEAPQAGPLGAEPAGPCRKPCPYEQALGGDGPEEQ

| binding (UNC93B1-FLAG-MYC) | also measured | Substance |
| --- | --- | --- |
|  | binding [1]: binds | STIM1 stably overexpressed with the flip-in system in HEK-293T cells (from UniProt Q13586 23-685) |
| binds |  | STIM1^TM4-YFP (STIM1 chimera containing the TLR4 TM domain) (from UniProt Q13586 23-213; O00206 632-652; Q13586 235-685) |
| no binding |  | mCherry-STIM1 (1–152) (from UniProt Q13586 23-152) (domain or fragment) |
| binds |  | mCherry-STIM1 (1–240) (from UniProt Q13586 23-240) (domain or fragment) |
|  | binding [2]: binds | stromal interaction molecule 1 (STIM1), endogenous in the mouse dendritic cell line 2114 (from UniProt P70302 23-685) |
